# Data from the antibiotic and cytotoxicity screens of Wong et al. (2023).
# The other results are listed elsewhere or left out.
# System: HepG2
# Assay: cytotoxicity call (relative viability < 0.9)
# Details: 10 µM
row,Compound,cytotoxicity call
1,O=C(C1=C[C@H](c2ccc(C(F)(F)F)cc2)C[C@H](OCc2ccc(CO)cc2)O1)N1CCN(Cc2ccccc2)CC1,inactive
2,CC(C)NC(=O)Nc1ccc2c(c1)C(=O)N([C@H](C)CO)C[C@@H](C)[C@@H](CN(C)CC1CCCCC1)OCCCC[C@@H](C)O2,inactive
3,C[C@@H]1CN([C@@H](C)CO)C(=O)c2cc(Br)cnc2O[C@@H]1CN(C)Cc1ccc(C(=O)O)cc1,inactive
4,COCC#Cc1ccc2c(c1)O[C@@H](CN(C)Cc1ccc3c(c1)OCO3)[C@H](C)CN([C@H](C)CO)S2(=O)=O,inactive
5,COCC#Cc1ccc2c(c1)O[C@H](CN(C)C(=O)C1CCOCC1)[C@@H](C)CN([C@H](C)CO)S2(=O)=O,inactive
6,COCCNC(=O)C[C@H]1C[C@@H]2c3cc(NS(C)(=O)=O)ccc3O[C@@H]2[C@H](CO)O1,inactive
7,C[C@@H]1CCCCO[C@@H](CN(C)Cc2ccc(C(F)(F)F)cc2)[C@@H](C)CN([C@@H](C)CO)C(=O)c2cc(NS(=O)(=O)c3ccc(F)cc3)ccc2O1,inactive
8,Cc1ccc(S(=O)(=O)Nc2ccc3c(c2)CC(=O)N([C@H](C)CO)C[C@@H](C)[C@@H](CN(C)Cc2ccc(-c4ccccc4)cc2)O3)cc1,active
9,O=C(O[C@H](Cc1ccc(O)c(O)c1)C(=O)O)[C@H]1[C@H](C(=O)O[C@@H](Cc2ccc(O)c(O)c2)C(=O)O)[C@H](c2ccc(O)c(O)c2)[C@@H]1c1ccc(O)c(O)c1,inactive
10,Cc1ccc(-c2nc(Nc3ccccc3F)sc2C)cc1,inactive
11,COc1cc(OC)cc(C(=O)OCCCNCCNCCCOC(=O)c2cc(OC)cc(OC)c2)c1,inactive
12,Cc1nc(N)sc1-c1ccnc(Nc2ccc(N3CCOCC3)cc2)n1,active
13,O=C(C[C@@H]1C[C@@H]2c3cc(NC(=O)Cc4ccncc4)ccc3O[C@@H]2[C@@H](CO)O1)NCc1ccc2c(c1)OCO2,inactive
14,C[C@H]1CCCCO[C@@H](CN(C)Cc2ccc(C(=O)O)cc2)[C@@H](C)CN([C@@H](C)CO)C(=O)c2cc(NS(=O)(=O)c3ccccc3)ccc2O1,inactive
15,COc1ccc(S(=O)(=O)Nc2ccc3c(c2)C(=O)N([C@@H](C)CO)C[C@H](C)[C@H](CN(C)C(=O)CCC(F)(F)F)OCCCC[C@@H](C)O3)cc1,inactive
16,Cc1noc(C)c1NC(=O)Nc1ccc2c(c1)C(=O)N([C@@H](C)CO)C[C@@H](C)[C@H](CN(C)C(=O)Nc1ccc(F)cc1)OCCCC[C@@H](C)O2,inactive
17,C[C@@H]1CCCCO[C@@H](CN(C)Cc2ccncc2)[C@@H](C)CN([C@@H](C)CO)C(=O)c2cc(NC(=O)Cc3ccccc3)ccc2O1,inactive
18,CC(=O)C1CCC2C3CCC4=CC(=O)CCC4(C)C3CCC12C (centres undefined),inactive
19,NC(=O)CNC(=O)c1cccc(Cl)c1,inactive
20,CCN(CC)CCC/N=C1/N=C(CC(=O)/C=C/c2ccc(O)c(OC)c2)C[C@@H](c2ccc(O)c(OC)c2)S1,inactive
21,O=C(C[C@@H]1CC[C@H]2[C@@H](COC[C@H](O)CN2S(=O)(=O)c2ccc(Cl)cc2)O1)NCCN1CCCCC1,inactive
22,C[C@@H]1CCCCO[C@H](CN(C)C(=O)NC2CCCCC2)[C@@H](C)CN([C@H](C)CO)C(=O)c2cc(NC(=O)Cc3ccccc3)ccc2O1,inactive
23,C[C@H]1CN([C@@H](C)CO)C(=O)c2cc(C#Cc3cccc(F)c3)cnc2O[C@H]1CN(C)C(=O)C1CCOCC1,inactive
24,C[C@@H]1CN([C@@H](C)CO)C(=O)c2cc(NC(=O)Nc3ccccc3)ccc2O[C@@H](C)CCCCO[C@@H]1CN(C)C(=O)CCC(F)(F)F,inactive
25,Cc1ccc(S(=O)(=O)Nc2ccc3c(c2)C(=O)N([C@H](C)CO)C[C@@H](C)[C@H](CN(C)C(=O)Nc2ccc(C(F)(F)F)cc2)O3)cc1,inactive
26,C[C@H]1CN([C@@H](C)CO)C(=O)Cc2cc(NC(=O)Nc3cccc4ccccc34)ccc2O[C@H]1CN(C)Cc1ccc(C(=O)Nc2ccccc2N)cc1,inactive
27,COCCOC(=O)N1C(=O)[C@@]2(c3cc(C#Cc4ccc(OC)cc4)ccc31)[C@H](C(=O)N1CCc3cc(OC)c(OC)cc3C1)[C@H]1C(=O)O[C@H](c3ccccc3)[C@H](c3ccccc3)N1[C@@H]2c1ccc(O)cc1,inactive
28,C[C@H](CO)N1C[C@H](C)[C@@H](CN(C)C(=O)NC2CCCCC2)Oc2c(NC(=O)C3CCOCC3)cccc2C1=O,inactive
29,O=C1NCCN1c1cccnc1,inactive
